{"source": "paper PMC4336329", "about": "(PLoS ONE, 2015)", "note": "Screen size: about 310,000 compounds; about 2,200 (0.71%) showed an effect of 50% or more. Effects have a minus sign here. This is one part of the list."}
{"biological_target": "human ether-à-go-go-related gene (hERG) potassium channel (human, UniProt Q12809)", "sequence (Q12809 whole entry, looked up)": "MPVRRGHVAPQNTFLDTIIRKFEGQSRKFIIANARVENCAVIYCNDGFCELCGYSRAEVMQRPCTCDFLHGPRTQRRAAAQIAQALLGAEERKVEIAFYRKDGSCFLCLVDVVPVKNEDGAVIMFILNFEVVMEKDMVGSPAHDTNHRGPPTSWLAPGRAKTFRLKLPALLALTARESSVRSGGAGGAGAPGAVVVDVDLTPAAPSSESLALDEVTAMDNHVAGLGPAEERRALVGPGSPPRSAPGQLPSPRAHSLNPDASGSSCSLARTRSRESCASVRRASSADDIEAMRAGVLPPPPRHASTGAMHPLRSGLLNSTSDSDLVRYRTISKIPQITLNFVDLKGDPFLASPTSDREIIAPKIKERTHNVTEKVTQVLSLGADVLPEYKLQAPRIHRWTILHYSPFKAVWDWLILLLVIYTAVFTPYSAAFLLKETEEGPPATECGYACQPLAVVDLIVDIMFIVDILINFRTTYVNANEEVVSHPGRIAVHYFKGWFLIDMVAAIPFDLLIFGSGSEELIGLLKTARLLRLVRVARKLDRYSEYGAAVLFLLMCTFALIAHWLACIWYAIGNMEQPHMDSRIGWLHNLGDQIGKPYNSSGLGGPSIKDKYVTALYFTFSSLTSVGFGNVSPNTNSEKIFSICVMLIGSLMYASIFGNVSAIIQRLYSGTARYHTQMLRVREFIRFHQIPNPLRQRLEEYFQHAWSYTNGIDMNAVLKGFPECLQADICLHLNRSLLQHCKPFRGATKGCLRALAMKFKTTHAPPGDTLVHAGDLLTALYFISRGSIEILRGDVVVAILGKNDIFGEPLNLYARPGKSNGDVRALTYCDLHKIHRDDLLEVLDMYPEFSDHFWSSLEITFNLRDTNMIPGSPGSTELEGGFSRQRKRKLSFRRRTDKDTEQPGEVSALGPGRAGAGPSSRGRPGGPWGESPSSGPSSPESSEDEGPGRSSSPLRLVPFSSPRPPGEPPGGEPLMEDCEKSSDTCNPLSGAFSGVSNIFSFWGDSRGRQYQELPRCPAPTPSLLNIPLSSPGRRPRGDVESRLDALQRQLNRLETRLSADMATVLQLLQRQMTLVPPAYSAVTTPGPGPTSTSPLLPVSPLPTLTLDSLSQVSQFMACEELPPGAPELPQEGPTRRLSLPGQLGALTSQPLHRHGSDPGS", "test": "primary screen, population patch clamp on CHO cells stably expressing hERG", "units": {"hERG current change (%, negative = inhibition) at 1uM": "%"}}
{"molecule": "Cc1c(NC(=O)CS(=O)(=O)c2ccccc2)c(=O)n(-c2ccccc2)n1C", "hERG current change (%, negative = inhibition) at 1uM": 13.4}
{"molecule": "CC(C)(C)Cc1nnc(NC(=O)c2cc(-c3ccccc3)nc3ccccc23)s1", "hERG current change (%, negative = inhibition) at 1uM": 10}
{"molecule": "COc1ccc(-c2cc3c(=O)n(CC(=O)Nc4ccc(Cl)cc4)nc(C)n3n2)cc1", "hERG current change (%, negative = inhibition) at 1uM": 18.3}
{"molecule": "Cc1ccc(OCC(=O)N2CCN(C3CCC(c4ccccc4)CC3)CC2)cc1.O=C(O)C(=O)O", "note": "(centres unmarked)", "hERG current change (%, negative = inhibition) at 1uM": -14.7}
{"molecule": "O=C(Nc1cc(Sc2ccccn2)cc([N+](=O)[O-])c1)c1ccc(Cl)cc1", "hERG current change (%, negative = inhibition) at 1uM": 5.55}
{"molecule": "CCOC(=O)C1=C(CN2CCc3ccccc32)NC(=O)NC1c1cc(C)ccc1C", "note": "(centres unmarked)", "hERG current change (%, negative = inhibition) at 1uM": 2.87}
{"molecule": "Cn1c(CNC(=O)c2cccs2)nnc1SCC(=O)Nc1ccc(Cl)cc1", "hERG current change (%, negative = inhibition) at 1uM": 0.86}
{"molecule": "CC(C)CCOc1ccc(CO[C@@H]2[C@H]3OC(C)(C)O[C@H]3O[C@@H]2C(O)CO)cc1", "note": "(some centres unmarked)", "hERG current change (%, negative = inhibition) at 1uM": 12.2}
{"molecule": "Cc1ccc(OCc2nnc(SCC(=O)NC3CCCCC3)n2C)cc1", "hERG current change (%, negative = inhibition) at 1uM": -13.5}
{"molecule": "O=C(COC(=O)/C=C/c1ccc(OC(F)F)cc1)NC(=O)NCc1ccccc1", "hERG current change (%, negative = inhibition) at 1uM": 8.05}
{"molecule": "NC(=O)Cc1c[nH]c2cccc(O)c12", "hERG current change (%, negative = inhibition) at 1uM": -2.1}
{"molecule": "COCCNc1nc2ccccc2n2cnnc12", "hERG current change (%, negative = inhibition) at 1uM": 16.2}
{"molecule": "COc1ccc(NC(=O)Cc2coc3cc(C)ccc23)cc1S(=O)(=O)N1CCOCC1", "hERG current change (%, negative = inhibition) at 1uM": -3.64}
{"molecule": "CC(C)Sc1oc(-c2ccco2)nc1S(=O)(=O)c1ccccc1", "hERG current change (%, negative = inhibition) at 1uM": 10.1}
{"molecule": "C=CCSc1nc(=O)n2ccc(C)cc2n1", "hERG current change (%, negative = inhibition) at 1uM": 7.84}
{"molecule": "COc1cc(C2C3C(C)N(C)C(=O)N(C)C3N(C)C(=O)N2C)ccc1O", "note": "(centres unmarked)", "hERG current change (%, negative = inhibition) at 1uM": 15.4}
{"molecule": "Cc1ccc(C2NC(=S)NC3=C2C(=O)CC(C)(C)C3)cc1", "note": "(centres unmarked)", "hERG current change (%, negative = inhibition) at 1uM": 14.3}
{"molecule": "COc1cnc(-c2ccccn2)nc1N(C)c1ccccc1", "hERG current change (%, negative = inhibition) at 1uM": 12.6}
{"molecule": "COC(=O)/C(=C\\Nc1ccc(Cl)cc1Cl)NC(=O)c1ccc(OC)cc1", "hERG current change (%, negative = inhibition) at 1uM": 7.76}
{"molecule": "CN(CCO)C(=O)c1cccc2c1-c1ccccc1C2=O", "hERG current change (%, negative = inhibition) at 1uM": 7.44}
{"molecule": "O=C(CNCc1ccccc1)Nc1ccccc1-c1ccccc1", "hERG current change (%, negative = inhibition) at 1uM": -7.56}
{"molecule": "OCCN1CCN(CC(O)C(F)(F)F)CC1", "note": "(centres unmarked)", "hERG current change (%, negative = inhibition) at 1uM": 6.56}
{"molecule": "Cc1nnc(NC(=O)CSc2nnc(-c3ccco3)n2C(C)C)s1", "hERG current change (%, negative = inhibition) at 1uM": 10.5}
{"molecule": "COc1ccc(C(CNC(=O)Cc2cc(OC)c(OC)c(OC)c2)N2CCCC2)cc1", "note": "(centres unmarked)", "hERG current change (%, negative = inhibition) at 1uM": 5.69}
{"molecule": "O=C(O)CCC(=O)NNC(=O)c1ccc(-c2ccccc2)cc1", "hERG current change (%, negative = inhibition) at 1uM": 9.22}
{"molecule": "CC(C)(C)NC(=O)NC(=O)COC(=O)CNC(=O)c1cccc(F)c1", "hERG current change (%, negative = inhibition) at 1uM": 10.6}
{"molecule": "O=C(COc1ccccc1)Nc1cc2c3c(c1)CC(=O)N3CCC2", "hERG current change (%, negative = inhibition) at 1uM": -4.17}
{"molecule": "Cc1ccc(NC(=O)CNCc2ccccc2)cc1Br.Cl", "hERG current change (%, negative = inhibition) at 1uM": -2.19}
{"molecule": "CC(C)CC1(C(=O)O)NC(c2ccccc2O)C2C(=O)N(C(C)C)C(=O)C21", "note": "(centres unmarked)", "hERG current change (%, negative = inhibition) at 1uM": 16.2}
{"molecule": "CC(CCn1cccn1)NC(=O)CCc1nnc(C2CCCCC2)o1", "note": "(centres unmarked)", "hERG current change (%, negative = inhibition) at 1uM": 11.5}
{"molecule": "COc1cc2nc(CN3CCN(S(=O)(=O)c4c(F)cccc4F)CC3)[nH]c(=O)c2cc1OC", "hERG current change (%, negative = inhibition) at 1uM": -7.64}
{"molecule": "CCOc1ccc(NS(=O)(=O)c2cc3c4c(c2)C(C)C(=O)N4CCC3)cc1", "note": "(centres unmarked)", "hERG current change (%, negative = inhibition) at 1uM": 13.7}
{"molecule": "O=C(O)Cc1ccc(NC(=O)c2ccc(NC(=O)c3ccco3)cc2)cc1", "hERG current change (%, negative = inhibition) at 1uM": 13}
{"molecule": "CC(=O)Nc1nc(C)c(CCCOc2ccc([N+](=O)[O-])cc2)c(=O)[nH]1", "hERG current change (%, negative = inhibition) at 1uM": 6.01}
{"molecule": "O=C(NC(N1CCCC1)C(Cl)(Cl)Cl)c1ccccc1", "note": "(centres unmarked)", "hERG current change (%, negative = inhibition) at 1uM": 13.5}
{"molecule": "Cc1ccc(NC(=O)CCNS(=O)(=O)c2ccc3c(c2)CCC(=O)N3)cc1C", "hERG current change (%, negative = inhibition) at 1uM": 26.8}
{"molecule": "COc1ccc(N=CC2=C(O)CCCC2=O)cc1", "hERG current change (%, negative = inhibition) at 1uM": 3.77}
{"molecule": "CCNc1nc(SC(C)C(=O)Nc2ccccc2)nc(N(C)C)n1", "note": "(centres unmarked)", "hERG current change (%, negative = inhibition) at 1uM": -0.96}
{"molecule": "COC(=O)c1cccc(C23CC4(C2)[C@H](CN(Cc2ccc(-c5ccccc5)cc2)[C@@H]4c2ccccc2)C3c2ccc(C(F)(F)F)cc2)c1", "note": "(some centres unmarked)", "hERG current change (%, negative = inhibition) at 1uM": 16}
{"molecule": "Cc1cccc(OCCOC(=O)C2CCN(S(=O)(=O)c3cccs3)CC2)c1", "hERG current change (%, negative = inhibition) at 1uM": 6.19}
{"molecule": "S=C(Nc1ccccc1)Nc1ccc(OCc2ccccc2)cc1", "hERG current change (%, negative = inhibition) at 1uM": 3.02}
{"molecule": "COc1ccc(NC(=O)CN2CCC(C(N)=O)(N3CCCCC3)CC2)cc1", "hERG current change (%, negative = inhibition) at 1uM": 3.3}
{"molecule": "C[C@@H](NC(=O)c1nc[nH]c1C(=O)N1CCN(c2ccccc2)CC1)c1ccccc1", "hERG current change (%, negative = inhibition) at 1uM": 14.8}
{"molecule": "CCN(CC)CCN(C)Cc1nc(C(c2ccccc2)c2ccccc2)no1", "hERG current change (%, negative = inhibition) at 1uM": -34.5}
